# Screen size: about 310,000 compounds; about 14,000 (4.5%) showed an effect of 50% or more. The effect is printed as a negative number. The list shows a part of the results.
# Target: human ether-à-go-go-related gene (hERG) potassium channel (human, UniProt Q12809)
# Test: primary screen, population patch clamp on CHO cells stably expressing hERG
# 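Further: peak tail current of the secondary pulse compared with the same well before compound.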
# human ether-à-go-go-related gene (hERG) potassium channel, sequence (Q12809 whole entry, looked up): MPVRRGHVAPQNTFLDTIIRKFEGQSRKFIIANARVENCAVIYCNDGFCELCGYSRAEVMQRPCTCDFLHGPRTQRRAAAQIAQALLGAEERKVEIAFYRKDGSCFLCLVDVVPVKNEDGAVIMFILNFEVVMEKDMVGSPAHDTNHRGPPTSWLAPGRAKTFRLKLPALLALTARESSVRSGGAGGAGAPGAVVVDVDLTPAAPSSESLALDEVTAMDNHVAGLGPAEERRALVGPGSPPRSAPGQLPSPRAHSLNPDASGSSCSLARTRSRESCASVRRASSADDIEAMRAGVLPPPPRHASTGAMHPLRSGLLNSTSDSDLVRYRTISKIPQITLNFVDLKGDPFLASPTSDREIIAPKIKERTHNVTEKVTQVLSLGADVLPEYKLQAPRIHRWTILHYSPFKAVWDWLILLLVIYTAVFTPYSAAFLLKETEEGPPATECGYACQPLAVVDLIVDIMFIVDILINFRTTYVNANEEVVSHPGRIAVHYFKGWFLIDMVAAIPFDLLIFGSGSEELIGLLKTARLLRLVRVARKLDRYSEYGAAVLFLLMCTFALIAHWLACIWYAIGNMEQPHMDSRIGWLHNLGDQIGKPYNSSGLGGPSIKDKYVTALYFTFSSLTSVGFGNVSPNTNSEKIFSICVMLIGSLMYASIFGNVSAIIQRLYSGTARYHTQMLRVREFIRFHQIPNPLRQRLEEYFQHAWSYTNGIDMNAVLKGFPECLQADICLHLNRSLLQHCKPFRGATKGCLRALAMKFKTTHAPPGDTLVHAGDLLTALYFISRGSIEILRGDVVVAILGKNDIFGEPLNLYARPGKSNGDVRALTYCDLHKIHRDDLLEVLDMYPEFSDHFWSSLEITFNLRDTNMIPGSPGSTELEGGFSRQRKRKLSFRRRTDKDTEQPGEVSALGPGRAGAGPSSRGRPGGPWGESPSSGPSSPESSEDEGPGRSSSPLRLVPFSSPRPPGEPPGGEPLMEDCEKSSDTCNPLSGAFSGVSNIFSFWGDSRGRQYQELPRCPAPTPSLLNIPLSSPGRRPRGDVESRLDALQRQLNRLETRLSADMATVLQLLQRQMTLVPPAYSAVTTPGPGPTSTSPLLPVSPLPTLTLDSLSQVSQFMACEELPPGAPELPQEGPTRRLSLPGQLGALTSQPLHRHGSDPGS
row,Structure (SMILES),"hERG current change (%, negative = inhibition) at 10uM [%]"
1,CCCN(C(=O)c1cc(S(=O)(=O)N2CCCCC2)ccc1Cl)C1CCS(=O)(=O)C1 (centres unmarked),-8.22
2,CCC(CO)(C(=O)OC1CC2CCC(C1)N2C)c1ccccc1.Cl (centres unmarked),12.3
3,ClCC1=Nc2ccccc2Cc2ccccc21,9.65
4,COc1ccc(N2CCN(C(=O)COC(=O)CNC(=O)c3ccc(Cl)cc3Cl)CC2)cc1,-44.7
5,COc1ccccc1N1CCN(C2CCCCC2NS(=O)(=O)c2ccccc2)CC1 (centres unmarked),4.09
6,COc1cccc(C2CC(c3ccccc3)Nc3ncnn32)c1 (centres unmarked),-9.55
7,CCCOc1cccc(C2C(C(=O)c3ccc(C)o3)=C(O)C(=O)N2CCN2CCOCC2)c1 (centres unmarked),10.5
8,Cc1ccc(C(C[N+](=O)[O-])n2nc(C)cc2C)cc1 (centres unmarked),11.8
9,O=[N+]([O-])c1cc(C=Nc2cccc3c(O)cccc23)ccc1Cl,29.2
10,Cc1ccc(C(=O)n2nc(-c3ccccc3)nc2NCc2ccco2)cc1,16
11,COc1ccc(NC(=O)CCC(=O)NCc2ccco2)c([N+](=O)[O-])c1,-0.71
12,Clc1ccc(-c2ccc(C=Nc3ccc(N4CCOCC4)cc3)o2)cc1,-6.9
13,O=C(Nc1nccs1)C1CC=CCC1C(=O)OCC(F)(F)C(F)F (centres unmarked),20.6
14,O=C(CC1NCCN(Cc2ccccc2)C1=O)Nc1ccccc1 (centres unmarked),-13.8
15,CCCNC(=O)C1(O)c2cc(Br)ccc2NC(=O)N1c1ccc(Cl)cc1 (centres unmarked),11
16,N#C/C(C(=O)Oc1ccccc1)=C1\C=CC=CN1,3.95
17,CCOc1cccc2sc(N(CCN(C)C)C(=O)c3ccc(Br)s3)nc12.Cl,-30.3
18,C=CCN1C(=O)NC(=O)/C(=C/c2c(CCN(C)C(=O)c3ccccc3)cc3c(c2OC)OCO3)C1=O,6.74
19,CCOc1ccc(S(=O)(=O)N2CCC(C(=O)N3CCN(c4ccccc4)CC3)CC2)cc1,-18

row,Structure (SMILES),"hERG current change (%, negative = inhibition) at 10uM [%]"
1,Cn1c(=O)c(=O)n(C)c2cc(S(=O)(=O)CCC(=O)Nc3ccc(C(F)(F)F)cc3)ccc21,17.9
2,CN(C)S(=O)(=O)c1cccc(NC(=O)COC(=O)c2ccc(Br)o2)c1,-27.9
3,c1ccc2c(c1)NC(c1ccncc1)n1c-2nc2ccccc21 (centres unmarked),-66.2
4,CC(=O)N1[C@H](C)C=C[C@]1(Cc1ccccc1)C(=O)NCc1cc(F)cc(C(F)(F)F)c1,-8.05
5,O=Nc1c(O)[nH]c2ccc(Cl)cc12,1.11
6,CCc1ccc(CN2C(=O)CCC2(C)C(=O)NC2CCCC2)cc1 (centres unmarked),3.34
7,COc1cccc(CNC(=O)Cn2c(=O)oc3cc(S(=O)(=O)N4CCCCC4)ccc32)c1,0.515
8,COc1ccc(/C(C)=N/NS(=O)(=O)c2ccccc2)c(OC)c1,-1.14
9,C=CCN1C(=O)c2ccc(C(=O)N(CC(C)C)c3c(N)n(CCCC)c(=O)[nH]c3=O)cc2C1=O,16.3
10,COc1ccccc1C(=O)Nc1cccc(NC(=O)c2ccccc2C)c1,3.01
11,COc1ccc(Br)cc1CN1C(=O)NC2(CCCCCC2)C1=O,10.4
12,CC1CCC(NCC(=O)Nc2cccc(S(N)(=O)=O)c2)CC1.O=C(O)C(=O)O (centres unmarked),14.3
13,Cc1cc(/C=C2\SC(=S)NC2=O)c(C)n1C,10.8
14,Cc1ccc(-c2c(C(=O)N/N=C/c3c[nH]c4ccccc34)nnn2-c2nonc2N)cc1,23.7
15,Cc1nnc(Nc2ccc(C(=O)O)cc2)[nH]c1=O,17.8
16,COc1ccc(CN2CCN(Cc3c[nH]c4ccccc34)CC2)cc1.O=C(O)C(=O)O,-67.5
17,Cc1cccc(-c2noc(CNC(=O)c3ccco3)n2)c1,-4.07
18,Cc1nnc(NC(=O)c2c(F)cccc2F)s1,21.6
19,Cc1cccc(NC(=S)NNC(=O)c2nn(C)cc2Cl)c1,3.97

row,Structure (SMILES),"hERG current change (%, negative = inhibition) at 10uM [%]"
1,O=C(CN(Cc1cccs1)C(=O)CCC(=O)Nc1nccs1)NCc1ccccc1,-31
2,CSc1ncc2c(n1)-c1cc(C)ccc1SC2,16.6
3,CCOc1ccc(-c2cn3ccccc3n2)cc1[N+](=O)[O-],-17.7
4,CCCN(CCC)S(=O)(=O)c1ccc(C(=O)NCc2ccc3c(c2)OCO3)cc1,7.42
5,COC(=O)c1sc2nc3c(cc2c1N)C(=O)CC(C)(C)C3,19.8
6,O=C(CSc1ccc(-c2cccnc2)nn1)c1ccc([N+](=O)[O-])cc1,-42.5
7,CC1=NN(c2ccccc2)C(=O)/C1=C\N1CC(C)OC(C)C1 (centres unmarked),-9.29
8,Cc1ccc(NC(=O)c2sc(C)nc2C)c(C)c1,1.97
9,Cc1ccc(C)c(C(=O)COc2ncnc3ccccc23)c1,3.24
10,CCNC(=O)C(CCSC)NS(=O)(=O)c1ccc(C)cc1 (centres unmarked),-4.17
11,COc1cccc(-c2cc3nc4c(c(NCC(C)(C)CN(C)C)n3n2)CCCC4)c1,-40.8
12,COc1cc(CN2CCN(CC3CC3)CC2CCO)cc(OC)c1 (centres unmarked),2.79
13,COc1ccc(-c2cc(C(F)F)n3ncc(C(=O)Nc4cc(C)on4)c3n2)cc1,8.08
14,Cc1cc(OCc2cc(C(=O)N(C)C3CCOCC3)no2)cc(C)c1Cl,-13.5
15,COc1ccc(-n2nnnc2SCc2nc(N)nc(N3CCOCC3)n2)cc1,2.6
16,CC(C)C[C@H](NC(=O)c1nc[nH]c1C(=O)NC(c1ccccc1)c1ccccc1)C(=O)OC(C)(C)C,17.6
17,O=C(O)C1CCCCC1C(=O)NCc1ccncc1 (centres unmarked),7.51
18,CC(=O)c1ccc(NS(=O)(=O)c2ccc3c(c2)CCC(=O)N3)cc1,8.49
